The source gives no read counts; variants with many changes may rest on few reads.
B1: OR4K15 (parent)
chain: GUUAACGGUCAUAGGCCAUGGAAACUAGGAGCACCAUUUCGCUGCCAGUGAAGAAAUGAACAAAGAAAAUCUGGGCCAGGCAGGCAUCAAAAGAAAUAGUCUUGCGCUCAACCAGAAAGUCUGUAAUCAUUUUAAGGGUA

Variants of: B1
Experiment: self-cleavage, relative activity (ratio to wild type); higher = more cleavage; in vitro, sequencing; the parent is a self-cleaving ribozyme

Which self-cleavage does the source give for GUUAACGGUCGUAGGCCAUGGAAACUAGGAGCACCAUUUCGCUGCCAGUGAAGAAAUGAACAAAGAAAAUCUGGGCCAGGCAGGCAUCAAAGGAACUAGUCUUGCGCUCAACCAGAAGGUCUGUAAUCAUUUUAAGGGUA [A11G A92G A96C A118G] here?
Its self-cleavage is 0.71.

With GUUAACGGUCGUAGGCCAUGGAAACUAGGAGCACCAUUUCGCUGCCAGUGAAGAAAUGAACAAAGAAAAUCUGGGCCAGGCAGGCAUCAAGAGAAAUAGUCUUGCGCUCAACCAGAAAGUCUGUAAACAUUUUAAGGGUA [A11G A91G U127A] as the variant, how does the self-cleavage read?
The self-cleavage was 0.93.

With GUUAACGGUCGUAGGCCAUGGAAACUAGGAGCACCAUUUCGCUGCCAGUGAAGAAAUGAACAAAGAAGAUCUGGGCCAGGCAGGCAUCAAAAGAAAUAGUCCUGCGCUCAACCAGAAAGUCUGUGAUCAUUUUAAGGGUA [A11G A68G U102C A125G] as the variant, how does the self-cleavage read?
The self-cleavage was 0.32.

Which self-cleavage does the source give for GUUAACGGUCGUAGGCCAUGGAAACUAGGAGCACCAUUUCGCUGCCAGUGAAGAAAUGAACAAAGAAAAUCUGGGCCAGGCAGGCAUCAGAAGAAAUAGUCUUGCGCUCAACCUGAAAGUCUGUAAUCAUUUUAAGGGUA [A11G A90G A114U] here?
Its self-cleavage is 0.

For GUUAACGGUCGUAGGCCAUGGAAACUAGGAGCACCAUUUCGCUGCCAGUGAAGAAAUGAACAAAGAAAAUCUGGGCCAGGCAGGCAUCAGAAGAAAUAGUCUUGCGCUCAACCGGAAAGUCUGUAAUCAUUUUAAGGGUA [A11G A90G A114G], which self-cleavage is on record?
The self-cleavage was 0.36.

With GUUAACGGUCGUAGGCCAUGGAAACUAGGAGCACCAUUUCGCUGCCAGUGAAGAAAUGAACAAAGAAAAUCUGGGCCAGGCAGGCAUCGAAAGAAAUAGUCAUGCGCUCAACCAGAAAGUCUGUAAUCAUUUUAAGGGUA [A11G A89G U102A] as the variant, how does the self-cleavage read?
The self-cleavage was 0.77.

With GUUAACGGUCGUAGGCCAUGGAAACUAGGAGCACCAUUUCGCUGCCAGUGAAGAAAUGAACAAAGAAAAUCUGGGCCAGGCAGGCAUCGAAAGAAAUAGUCCUGCGCUCAACCAGAAAGUCUGUAAUCAUUUUAAGGGUA [A11G A89G U102C] as the variant, how does the self-cleavage read?
Its self-cleavage is 1.56.

For GUUAACGGUCGUAGGCCAUGGAAACUAGGAGCACCAUUUCGCUGCCAGUGAAGAAAUGAACAAAGAAAAUCUGGGCCGGGCAGGCAUCAAAAGAAAUAGUCUUGCGCUCAACCAGAAAGUCUGUAAUCAUUUUAAGGGUG [A11G A78G A140G], which self-cleavage is on record?
The self-cleavage was 0.25.

For GUUAACGGUCGUAGGCCAUGGAAACUAGGAGCACCAUUUCGCUGCCAGUGAAGAAAUGAACAAAGAAAAUCUGGGCCAGGCAGGCAUCGAUAGAAAUAGUCUUGCGCUCAACCAGAAAGUCUGUAAUCACUUUAAGGGUA [A11G A89G A91U U130C], which self-cleavage is on record?
Its self-cleavage is 0.32.

For GUUAACGGUCGUAGGCCAUGGAAACUAGGAGCACCAUUUCGCUGCCAGUGAAGAAAUGAACAAAGAAGAUCUGGGCCAGGCAGGCAUCAAAAGAAAUAGUCUUGCGCUCAACCAGAAAGUCUGUAGUCAUUUUAAGGGUA [A11G A68G A126G], which self-cleavage is on record?
The self-cleavage was 0.42.

With GUUAACGGUCGUAGGCCAUGGAAACUAGGAGCACCAUUUCGCUGCCAGUGAAGAAAUGAACAAAGAAAGUCUGGGCCAGGCAGGCAUCAAAAGAAAUAGUCCUGCGCUCAACCAGAAAGUCUGUAAUCAUUUCAAGGGUA [A11G A69G U102C U133C] as the variant, how does the self-cleavage read?
The self-cleavage was 1.47.

Which self-cleavage does the source give for GUUAACGGUCGUAGGCCAUGGAAACUAGGAGCACCAUUUCGCUGCCAGUGAAGAAAUGAACAAAGAAAAUCUGGGCCAGGCAGGCAUCAAGAGAAAUAGUCCUGCGCUCAACCAGAAAGUCUGUAAUCAUUUUAAGGGUA [A11G A91G U102C] here?
The self-cleavage was 2.27.

With GUUAACGGUCGUAGGCCAUGGAAACUAGGAGCACCAUUUCGCUGCCAGUGAAGAAAUGAACAAAGAGAAUCUGGGCCAGGCAGGCAUCAAAAGAAAUAGUCUUGCGCUAAACCAGAAAGUCUGUAAUCAUUCUAAGGGUA [A11G A67G C109A U132C] as the variant, how does the self-cleavage read?
The self-cleavage was 0.17.

Which self-cleavage does the source give for GUUAACGGUCGUAGGCCAUGGAAACUAGGAGCACCAUUUCGCUGCCAGUGAAGAAAUGAACAAAGGAAAUCUGGGCCAGGCAGGCAUCAAAAGAAAUAGUCUCGCGCUCAACCAGAAAGUCUGUAAUCAUUUUAAAGGUA [A11G A66G U103C G136A] here?
The self-cleavage was 0.78.

With GUUAACGGUCGUAGGCCAUGGAAACUAGGAGCACCAUUUCGCUGCCAGUGAAGAAAUGAACAAAGAAUAUCUGGCCCAGGCAGGCUUCAAAAGAAAUAGUCUUGCGCUCAACCAGAAAGUCUGUAAUUACUUUAAGGGUA [A11G A68U G75C A86U C128U U130C] as the variant, how does the self-cleavage read?
The self-cleavage was 0.11.

With GUUAACGGUCGUAGGCCAUGGAAACUAGGAGCACCAUUUCGCUGCCAGUGAAGAAAUGAACAAAGAAAAUCUGGGCCAGGCAGGCAUCGAGAGAAAUAGUCUUGCGCUCAACCAGGAAGUCUGUAAUCAUUUUAAGGGUA [A11G A89G A91G A116G] as the variant, how does the self-cleavage read?
Its self-cleavage is 0.36.

Which self-cleavage does the source give for GUUAACGGUCGUAGGCCAUGGAAACUAGGAGCACCAUUUCGCUGCCAGUGAAGAAAUGAACAAAGAAAAUCUGGGCCUGGCAGGCAUCAAAAGAAAUAGUCCUGCGCUCAACCAGAAAGUCUGUAAACAUUUUAAGGGUA [A11G A78U U102C U127A] here?
The self-cleavage was 0.88.

With GUUAACGGUCGUAGGCCAUGGAAACUAGGAGCACCAUUUCGCUGCCAGUGAAGAAAUGAACAAAGAAAAUCUGGGCCAGGCAGGCAUCAAGAGAAAUAGUCUUGCGCUCAACCAGAAGGUCUGUAAUCAUUUUAAGGGUA [A11G A91G A118G] as the variant, how does the self-cleavage read?
The self-cleavage was 0.78.

Which self-cleavage does the source give for GUUAACGGUCGUAGGCCAUGGAAACUAGGAGCACCAUUUCGCUGCCAGUGAAGAAAUGAACAAAGAAAAUCUGGGCCAGGCUGGCAUCAAAAGAAAUAGUCUUGUGCUCAGCCAGAAAGUCUGUAAUCAUCUUAAGGGUA [A11G A82U C105U A111G U131C] here?
The self-cleavage was 0.

For GUUAACGGUCGUAGGCCAUGGAAACUAGGAGCACCAUUUCGCUGCCAGUGAAGAAAUGAACAAAGGAAAUCUGGGCCAGGCAGGCAUCAAAAGAAAUAGUCUUGCGCUCAACCAGAAAGUCUGUAAUCAUUUUAAGGGUG [A11G A66G A140G], which self-cleavage is on record?
Its self-cleavage is 1.6.

For GUUAACGGUCGUAGGCCAUGGAAACUAGGAGCACCAUUUCGCUGCCAGUGAAGAAAUGAACAAAGAAAAUCUGGGCCAGGCAGGCAUCAAAAGAGAUAGUCUUGCGCUCAACCAGAAAGUCCGUAAUCAUUUUAAGGGUA [A11G A95G U122C], which self-cleavage is on record?
The self-cleavage was 0.46.

— the RNAGym collection of RNA variant scans (doi:10.7554/elife.90254)
